The source of these data is ChEMBL document CHEMBL4888484, “Replenishing the malaria drug discovery pipeline: Screening and hit evaluation of the MMV Hit Generation Library 1 (HGL1) against asexual blood stage Plasmodium falciparum ,using a nano luciferase reporter read-out” (2022).

The whole screen tested about 150,000 compounds, of which about 540 (0.36%) showed an effect of 50% or more. This is one part of the list.

In this test the test system is Plasmodium falciparum. In words: Primary screen in NF54 nanoGlo assay, in single point, at 2uM, 72h; a lower Z score goes with more inhibition. The format is functional, Erythrocyte. Conditions: timepoint 72 hour.
As for `COc1ccc2c(c1)C(N1CCCN(C(=O)c3ccc(Cl)cc3)CC1)=Nc1ccccc1O2`, the “% Inhibition” value is reported as -7% and the Z score was 1.14.
On the same counts, the results for `CCN1CC(C(=O)NC(C)c2cc3cc(Cl)ccc3o2)CC1=O` (centres undefined) are 3% and -0.59.
For `CN1CCN(c2cnn(Cc3c(F)cccc3C(F)(F)F)c(=O)c2)CC1` the same measures were -16% and 1.76.
For `Fc1cnccc1NCCCOC1CCCC1` the same measures were -3% and 0.37.
For the compound `CCOc1ccc(N(CC(=O)N2CC(=O)Nc3ccccc32)S(C)(=O)=O)cc1`, the “% Inhibition” value is recorded as -14% and the Z score turned out to be 2.53.
For `O=C1C[C@H](C(=O)N2CCC3(CCC(=O)N(Cc4ccco4)C3)CC2)CN1` the same measures were -5% and 0.88.
On the same counts, the results for `COCc1cccc(CNCc2cnc(-c3ccccc3)s2)c1` are -3% and 0.41.
For `C[C@H](NS(=O)(=O)CCNS(=O)(=O)c1ccccc1)c1cccc(Br)c1` the same measures were 19% and -1.7.
With `CC(C)[C@H](NC(=O)NCC(F)(F)F)C(=O)N1CCCC1`, the “% Inhibition” value is listed as -2% and the Z score is 0.23.
Regarding `Cc1ccc(NC(=O)Nc2cccc(CCc3nc4ccccc4n3C)c2)c(C)c1`, the “% Inhibition” value turned out to be 0% and the Z score amounted to 0.07.
In the case of `CN1CCC[C@H](NC(=O)c2coc(COc3cccc4cccnc34)n2)C1`, the “% Inhibition” value turned out to be 1% and the Z score is -0.18.
For `CN(C)C[C@]1(O)CCCN(Cc2nc3c(s2)CCCC3)C1` the same measures were -9% and 1.26.
For `COc1cccc(CNC(=O)c2cccc(-n3c(C)nc4cccnc43)c2C)c1` the same measures were 4% and -0.6.
Consider `COc1cc(NC(=O)c2ccccc2)c(OC)cc1NC(=O)NCC1(N2CCOCC2)CCCCC1`, for which the “% Inhibition” value was -5% and the Z score came out at 0.6.
For `COCCC1CCN(C(=O)CN(C)C(=O)Cc2ccc(F)cc2)CC1` the same measures were -6% and 1.17.
On the same counts, the results for `CC(=O)N1CCC(N[C@H]2CCCc3c2cnn3-c2ccc(C(C)(C)C)cc2)CC1` are 6% and -0.87.
For `COCCN1C(=O)C[C@](CC(=O)N2CCC(Oc3ccccc3OC)CC2)(c2ccccc2F)C1=O`, the “% Inhibition” value is given as 6% and the Z score is recorded as -0.79.
On the same counts, the results for `Cc1ccc2c(c1)Oc1ccc(S(=O)(=O)N(C)c3ccccc3C)cc1C(=O)N2` are -22% and 3.11.
For the compound `Cc1cc(C(=O)N[C@H]2CC3(CCCC3)Oc3ccccc32)nc(C)n1`, the “% Inhibition” value is listed as 0% and the Z score is 0.01.
For `COCc1nn(CC(=O)NC(C)C)c(=O)n1-c1ccc2c(c1)OCO2` the same measures were -4% and 0.69.
On the same counts, the results for `Cc1cnc(NC(=O)NCC2CCCC(CNC(=O)Nc3ncc(C)s3)C2)s1` (centres undefined) are 2% and -0.33.
On the same counts, the results for `COCCNC1=Nc2ncccc2NC12CCN(C(=O)COc1ccccc1C)CC2` are 29% and -3.23.
As to `CCOC[C@H]1CCCN1C(=O)Cn1nnnc1N`, the “% Inhibition” value was -3% and the Z score came to 0.44.
Turning to `Cc1c(C(=O)N2CCCC[C@H](N)C2)n(C)c2c(C)cccc12`, the “% Inhibition” value was -10% and the Z score was 1.71.
For `CCN(C(=O)c1cccc(-c2ccc3c(c2)OCO3)c1)[C@H]1COC[C@@H]1O` the same measures were -6% and 0.54.
For `COCCc1noc([C@H](C)NC(=O)Nc2cccc(-c3csc(C)n3)c2)n1` the same measures were -8% and 1.48.
For `O=C(c1cscn1)N1CC[C@@]2(CCCN(CC3CCCCC3)C2=O)C1` the same measures were -23% and 2.01.
`CCOc1ccc(C(=O)N2CCC(S(=O)(=O)c3ccc(F)cc3)CC2)cc1OCC`: the “% Inhibition” value is listed as -1% and the Z score is listed as 0.22.
On the same counts, the results for `CN1CCC(N2CCC(Oc3cncc(Br)c3)C2)C1=O` (centres undefined) are -16% and 1.76.
On the same counts, the results for `O=C(Nc1cccc(C#Cc2ccccn2)c1)N[C@H]1CC[C@@H](C(=O)O)C1` are 5% and -0.52.
Consider `Cn1nc(-c2ccc(C(=O)N3CCCCCC3)cc2)nc1N1CCOCC1`, for which the “% Inhibition” value is on record as -3% and the Z score is 0.33.
For `CCN(CC)CC(=O)NC(=O)Nc1ccccc1` the same measures were -1% and 0.2.
With `CCN1CCN(c2cc3c(cc2S(=O)(=O)N2CCC(C)CC2)C(=O)Nc2cc(C)ccc2O3)CC1`, the “% Inhibition” value turned out to be 0% and the Z score is -0.06.
On to `COc1ccc(S(=O)(=O)N2C[C@@H](F)C[C@H]2CNC(C)=O)c2c1CCCC2`, for which the “% Inhibition” value was -5% and the Z score is reported as 0.81.
For `O=C(Nc1ccc2c(c1)OCCCO2)[C@@H]1CCCN1C(=O)c1ccco1` the same measures were -7% and 1.06.
On the same counts, the results for `O=C(NC[C@H]1CCCC1=O)c1cc(F)c[nH]1` are 5% and -0.59.
For `CC(C)(C(=O)N1CCC[C@H](c2nccn2CC(N)=O)C1)c1ccccc1` the same measures were -8% and 0.93.
As for `COc1ncccc1NC(=O)[C@@H]1COc2ccccc2O1`, the “% Inhibition” value is 8% and the Z score was -1.01.
On the same counts, the results for `Cc1ccc(C(=O)N2CC[C@H]3N(C)S(=O)(=O)CC[C@]3(C(=O)N3CCCC3)C2)s1` are -12% and 1.75.
On the same counts, the results for `Cc1cc(C)n(CCCNCc2cc3ccc(F)cc3n(CC(C)C)c2=O)n1` are -4% and 0.69.
On the same counts, the results for `NCc1cc(C(=O)N(CCC2CC2)CC2CC2)ccn1` are -23% and 2.48.
Take `COc1ccc2c(c1)Oc1ccccc1N=C2N1CCN(C(=O)c2ccc(Cl)cc2)[C@@H](C)C1`: the “% Inhibition” value was 0% and the Z score was 0.02.
Consider `COc1ccc(CN2C(=O)COC[C@H]2C(=O)Nc2ccccc2F)cc1OC`, for which the “% Inhibition” value was 0% and the Z score turned out to be 0.05.
On the same counts, the results for `CCN1C[C@@H](CN(C)C(=O)c2ccc(-c3ccc(C)nc3N)cc2)CC1=O` are -9% and 1.24.
On the same counts, the results for `CC(C)c1nnc([C@@H]2CC3(CN(C(=O)c4cnccn4)C3)CN2C)o1` are -6% and 0.67.
With `O=C(c1nc(-c2ccccc2)nc2c1OCCO2)N1CCCC1`, the “% Inhibition” value is on record as -2% and the Z score stood at 0.38.
On the same counts, the results for `CCc1nc(CN2C[C@@H]3NC(=O)CN(CCOC)C(=O)CCc4ccc(OC)c(c4)Oc4cccc(c4)CO[C@H]3C2)n[nH]1` are 6% and -0.77.
On the same counts, the results for `Cc1nnc2n1CC[C@@H](N(C)C(=O)c1ccc3ccccc3n1)CC2` are -10% and 1.51.
In the case of `CCc1nc(C)c2c(n1)N(Cc1cccnc1)C(=O)CC2`, the “% Inhibition” value is -3% and the Z score came out at 0.49.
Regarding `Nc1nc(-c2ccc(F)cc2)nn1C(=O)CCc1ccccc1`, the “% Inhibition” value is -10% and the Z score was 1.57.
As to `Cc1ncc(CN[C@H]2CCCc3nc(-c4cccnc4)ncc32)n1C`, the “% Inhibition” value stood at 8% and the Z score was -1.01.
For `COc1ccc(S(=O)(=O)N2CC[C@@H](c3ccccc3Cl)S(=O)(=O)CC2)cc1C` the same measures were -1% and 0.24.
On the same counts, the results for `CC(C)(C)c1ccc2cc(C(=O)N[C@H]3CCCN(S(C)(=O)=O)C3)[nH]c2c1` are 6% and -0.98.
On the same counts, the results for `O=C(N[C@H]1C[C@@](CO)(c2ccccc2)C1)c1ccc(-c2cn[nH]c2)cn1` are -1% and 0.19.
In the case of `O=C(NCC1(c2ccccc2)CC1)NC1CCCCCC1`, the “% Inhibition” value is -4% and the Z score amounted to 0.81.
On the same counts, the results for `Cc1csc(NC(=O)C2=NN(c3ccccc3)[C@H](C(N)=O)C2)n1` are 15% and -1.98.
On the same counts, the results for `CN(c1cccnc1)S(=O)(=O)c1ccccc1` are -2% and 0.25.
For `Cc1ccc(C)c(-n2cc(CN3CCN(Cc4nccn4C)CC3)c(-c3ccccc3)n2)c1` the same measures were -9% and 1.05.
`CCOC(C)C(=O)Nc1cc(C)n(C(C)CC)n1` (centres undefined): the “% Inhibition” value is on record as -7% and the Z score turned out to be 1.12.
With `Cc1cc(C)n(Cc2nnc3n2CCC3)n1`, the “% Inhibition” value is given as -13% and the Z score is 1.5.
With `O=S(=O)(NC1CC2CCC1C2)c1cncc(Br)c1` (centres undefined), the “% Inhibition” value is on record as -6% and the Z score is on record as 0.77.
In the case of `C1=CCN([C@H]2CCN(c3cc(-c4ccccc4)nc4ncnn34)C2)C1`, the “% Inhibition” value stood at 0% and the Z score was -0.05.
For `O=C(O)c1cc2oc(-c3ccc(Cl)c(Cl)c3)cc2[nH]1` the same measures were -40% and 4.75.
For `O=C(CCn1nc2ccccn2c1=O)N1CC=C(c2ccccc2)C1` the same measures were 2% and -0.23.
For the compound `CCOC(=O)N1CCN(Cc2cnc3c(-c4ccccc4)cnn3c2)CC1`, the “% Inhibition” value is on record as -7% and the Z score is reported as 1.41.
On to `Cc1ncc(CO)c(CN(C)Cc2ccccc2Cl)c1O`, for which the “% Inhibition” value is on record as -1% and the Z score amounted to 0.14.
For `Cc1nc(-c2nc(C3CCCC3)nn2-c2ccc3nncn3n2)cs1` the same measures were -15% and 2.27.
For `Cc1noc(COCC(=O)NC(C)(C)CCc2ccccc2)n1` the same measures were 2% and -0.38.
On the same counts, the results for `Cc1n[nH]c(C)c1S(=O)(=O)N1CCC[C@H](c2cc[nH]n2)C1` are -8% and 1.34.
On to `Cc1ccc(C(=O)C(=O)N(CC#N)C2CC2)cc1`, for which the “% Inhibition” value was found to be 2% and the Z score was -0.26.
For `CCc1ncc(CN2CCC(OCc3ccccc3F)CC2)cn1` the same measures were -12% and 1.9.
Turning to `Brc1ccccc1-c1nnc(COc2ccc3c(c2)OCO3)o1`, the “% Inhibition” value worked out at 0% and the Z score was -0.05.
In the case of `Cc1noc(C)c1C(=O)NC[C@H]1COc2ccccc2O1`, the “% Inhibition” value is recorded as 5% and the Z score is -0.58.
Turning to `Cc1cc(CNc2ncnc3onc(C)c23)ccc1F`, the “% Inhibition” value is -3% and the Z score is recorded as 0.47.
For `Cc1ccc2c(O)c(C(=O)N3C[C@@H](CO)[C@H](c4ccsc4)C3)cnc2n1`, the “% Inhibition” value is listed as -14% and the Z score worked out at 2.72.
On to `COc1c([C@@H]2CCCN2c2nccc(C(F)(F)F)n2)c(C)nn1C`, for which the “% Inhibition” value is given as -4% and the Z score is given as 0.38.
Consider `CCn1cc(CN2CCc3nnc(Cc4cccnc4)n3CC2)cn1`, for which the “% Inhibition” value is reported as 0% and the Z score is -0.03.
As for `CCc1ccc(C(=O)N[C@@H](C)C2CCN(C)CC2)[nH]1`, the “% Inhibition” value is -16% and the Z score came out at 1.43.
With `CC(C)(C)c1cc(NC(=O)c2ccc(CS(=O)(=O)C(F)F)cc2)n(C(C)(C)C)n1`, the “% Inhibition” value is -16% and the Z score is 2.2.
Consider `CCc1ccc(S(=O)(=O)N2CC(N3C(=O)CNC3=O)C2)s1`, for which the “% Inhibition” value is recorded as -7% and the Z score was 1.3.
In the case of `CCCN(CC1CC1)C(=O)c1nc(NC(C)=O)ccc1Br`, the “% Inhibition” value is -4% and the Z score is given as 0.72.
For `O=C1NCCN2CC3(CCN(C(=O)Nc4ccccc4F)CC3)C[C@@H]12` the same measures were -6% and 1.1.
